The target in assay [1] is T1, MYB75 (pGBKT7 fusion, yeast two-hybrid) (Arabidopsis thaliana) (UniProt Q9FE25).
T1 sequence: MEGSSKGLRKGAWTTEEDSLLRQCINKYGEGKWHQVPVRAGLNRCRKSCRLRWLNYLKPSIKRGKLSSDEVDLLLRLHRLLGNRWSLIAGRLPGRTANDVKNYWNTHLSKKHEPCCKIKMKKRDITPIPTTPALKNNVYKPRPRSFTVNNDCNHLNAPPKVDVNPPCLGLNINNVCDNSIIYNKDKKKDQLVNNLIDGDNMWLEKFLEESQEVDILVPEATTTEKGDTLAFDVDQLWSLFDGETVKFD
In words: two-hybrid; directed assay; yeast AH109 with pairs of pGADT7 and pGBKT7 plasmids; growth on SD-Leu/-Trp/-Ade/-His.

Assay [2] has as its target T2, HAT1 (bait of the yeast two-hybrid screen) (Arabidopsis thaliana) (UniProt P46600).
T2 sequence: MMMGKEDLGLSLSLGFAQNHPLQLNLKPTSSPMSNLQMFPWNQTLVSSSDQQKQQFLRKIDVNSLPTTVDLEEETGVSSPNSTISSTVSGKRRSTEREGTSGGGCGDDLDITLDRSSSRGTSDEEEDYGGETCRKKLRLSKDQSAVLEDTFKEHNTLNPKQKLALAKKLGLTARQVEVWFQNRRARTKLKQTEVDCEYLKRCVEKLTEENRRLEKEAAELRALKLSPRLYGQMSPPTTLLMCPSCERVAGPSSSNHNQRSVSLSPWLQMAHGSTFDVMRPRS
As to the kind of experiment: two-hybrid; yeast two-hybrid screen for interaction partners of HAT1; library and constructs not described.

The target of assay [3] is T3, MYB75-nYFP (Arabidopsis thaliana) (UniProt Q9FE25).
T3 sequence: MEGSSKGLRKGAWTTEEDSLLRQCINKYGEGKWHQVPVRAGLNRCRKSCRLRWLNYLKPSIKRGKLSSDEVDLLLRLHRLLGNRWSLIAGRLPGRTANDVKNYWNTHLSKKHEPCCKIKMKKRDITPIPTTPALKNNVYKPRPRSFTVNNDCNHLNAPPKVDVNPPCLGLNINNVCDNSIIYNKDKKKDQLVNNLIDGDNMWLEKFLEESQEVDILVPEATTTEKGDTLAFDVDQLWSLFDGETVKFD
In words: split reporter; BiFC; nYFP and cYFP fusions coinfiltrated in N. benthamiana leaves.

Assay [4] concerns the target T4, MYB75-cYFP (Arabidopsis thaliana) (UniProt Q9FE25).
T4 sequence: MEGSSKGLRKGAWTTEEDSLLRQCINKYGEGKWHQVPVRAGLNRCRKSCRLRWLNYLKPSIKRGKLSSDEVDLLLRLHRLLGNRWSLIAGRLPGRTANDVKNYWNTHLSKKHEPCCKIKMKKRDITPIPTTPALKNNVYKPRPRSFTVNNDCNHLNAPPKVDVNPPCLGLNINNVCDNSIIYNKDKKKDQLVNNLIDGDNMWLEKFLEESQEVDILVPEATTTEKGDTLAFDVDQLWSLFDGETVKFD
As to the kind of experiment: split reporter; BiFC in N. benthamiana leaves with HAT1-FLAG or empty FLAG vector coexpressed; YFP read 48 h after coexpression.

Results are given in words; binding and its absence hold for the method and conditions named. For part of these data: Binding seen in cells or lysates may run through a third protein. Some results given as binding are weak or reduced against the parent protein; the word gives no strength. For part of these data: Where a sequence is shown, tags or fusion partners need not be part of it.

B1: HAT2 (yeast two-hybrid fusion) (protein, UniProt P46601 1-283)
chain: MMMGKEDLGLSLSLGFSQNHNPLQMNLNPNSSLSNNLQRLPWNQTFDPTSDLRKIDVNSFPSTVNCEEDTGVSSPNSTISSTISGKRSEREGISGTGVGSGDDHDEITPDRGYSRGTSDEEEDGGETSRKKLRLSKDQSAFLEETFKEHNTLNPKQKLALAKKLNLTARQVEVWFQNRRARTKLKQTEVDCEYLKRCVEKLTEENRRLQKEAMELRTLKLSPQFYGQMTPPTTLIMCPSCERVGGPSSSNHHHNHRPVSINPWVACAGQVAHGLNFEALRPRS
B1: in assay [1], the binding entry is “no binding”.

B2: ATHB2 (yeast two-hybrid fusion) (protein, UniProt Q05466 1-284)
chain: MMFEKDDLGLSLGLNFPKKQINLKSNPSVSVTPSSSSFGLFRRSSWNESFTSSVPNSDSSQKETRTFIRGIDVNRPPSTAEYGDEDAGVSSPNSTVSSSTGKRSEREEDTDPQGSRGISDDEDGDNSRKKLRLSKDQSAILEETFKDHSTLNPKQKQALAKQLGLRARQVEVWFQNRRARTKLKQTEVDCEFLRRCCENLTEENRRLQKEVTELRALKLSPQFYMHMSPPTTLTMCPSCEHVSVPPPQPQAATSAHHRSLPVNAWAPATRISHGLTFDALRPRS
B2: in assay [1], the binding result is recorded as “no binding”.

B3: MYB75 (hit of the yeast two-hybrid screen) (protein, UniProt Q9FE25 1-248)
chain: MEGSSKGLRKGAWTTEEDSLLRQCINKYGEGKWHQVPVRAGLNRCRKSCRLRWLNYLKPSIKRGKLSSDEVDLLLRLHRLLGNRWSLIAGRLPGRTANDVKNYWNTHLSKKHEPCCKIKMKKRDITPIPTTPALKNNVYKPRPRSFTVNNDCNHLNAPPKVDVNPPCLGLNINNVCDNSIIYNKDKKKDQLVNNLIDGDNMWLEKFLEESQEVDILVPEATTTEKGDTLAFDVDQLWSLFDGETVKFD
With B3, in assay [2], the binding result was “binds”.

B4: HAT1-cYFP (protein, UniProt P46600 1-282)
chain: MMMGKEDLGLSLSLGFAQNHPLQLNLKPTSSPMSNLQMFPWNQTLVSSSDQQKQQFLRKIDVNSLPTTVDLEEETGVSSPNSTISSTVSGKRRSTEREGTSGGGCGDDLDITLDRSSSRGTSDEEEDYGGETCRKKLRLSKDQSAVLEDTFKEHNTLNPKQKLALAKKLGLTARQVEVWFQNRRARTKLKQTEVDCEYLKRCVEKLTEENRRLEKEAAELRALKLSPRLYGQMSPPTTLLMCPSCERVAGPSSSNHNQRSVSLSPWLQMAHGSTFDVMRPRS
For B4, the binding entry in assay [3] is on record as “binds”.

B5: HAT1-FLAG (protein, UniProt P46600 1-282)
chain: MMMGKEDLGLSLSLGFAQNHPLQLNLKPTSSPMSNLQMFPWNQTLVSSSDQQKQQFLRKIDVNSLPTTVDLEEETGVSSPNSTISSTVSGKRRSTEREGTSGGGCGDDLDITLDRSSSRGTSDEEEDYGGETCRKKLRLSKDQSAVLEDTFKEHNTLNPKQKLALAKKLGLTARQVEVWFQNRRARTKLKQTEVDCEYLKRCVEKLTEENRRLEKEAAELRALKLSPRLYGQMSPPTTLLMCPSCERVAGPSSSNHNQRSVSLSPWLQMAHGSTFDVMRPRS
Regarding B5, the binding result in assay [4] is reported as “binds”.

B6: EGL3-nYFP (protein, UniProt Q9CAD0 1-596)
chain: MATGENRTVPDNLKKQLAVSVRNIQWSYGIFWSVSASQPGVLEWGDGYYNGDIKTRKTIQAAEVKIDQLGLERSEQLRELYESLSLAESSASGSSQVTRRASAAALSPEDLTDTEWYYLVCMSFVFNIGEGIPGGALSNGEPIWLCNAETADSKVFTRSLLAKSASLQTVVCFPFLGGVLEIGTTEHIKEDMNVIQSVKTLFLEAPPYTTISTRSDYQEIFDPLSDDKYTPVFITEAFPTTSTSGFEQEPEDHDSFINDGGASQVQSWQFVGEEISNCIHQSLNSSDCVSQTFVGTTGRLACDPRKSRIQRLGQIQEQSNHVNMDDDVHYQGVISTIFKTTHQLILGPQFQNFDKRSSFTRWKRSSSVKTLGEKSQKMIKKILFEVPLMNKKEELLPDTPEETGNHALSEKKRREKLNERFMTLRSIIPSISKIDKVSILDDTIEYLQDLQKRVQELESCRESADTETRITMMKRKKPDDEEERASANCMNSKRKGSDVNVGEDEPADIGYAGLTDNLRISSLGNEVVIELRCAWREGILLEIMDVISDLNLDSHSVQSSTGDGLLCLTVNCKHKGTKIATTGMIQEALQRVAWIC
On to B6, for which the binding entry in assay [4] was “binds”.

B7: HAT3 (yeast two-hybrid fusion) (protein, UniProt P46602 1-315)
chain: MSERDDGLGLSLSLSLGFNQKDPSSRLNPMPLASYASSSHMQHMQQSNYNHPQKIQNTWINMFQSSERNSDMRSFLRGIDVNRAPSTVVVDVEDEGAGVSSPNSTVSSVMSGKKSERELMAAAGAVGGGRVEDNEIERASCSLGGGSDDEDGSGNGDDSSRKKLRLSKEQALVLEETFKEHSTLNPKQKMALAKQLNLRTRQVEVWFQNRRARTKLKQTEVDCEYLKRCCENLTDENRRLQKEVSELRALKLSPHLYMHMKPPTTLTMCPSCERVAVTSSSSSVAPPVMNSSSPMGPMSPWAAMPLRQRPAAGSH
As for B7, the binding result in assay [1] is on record as “no binding”.

B8: ATHB4 (yeast two-hybrid fusion) (protein, UniProt P92953 1-318)
chain: MGERDDGLGLSLSLGNSQQKEPSLRLNLMPLTTSSSSSSFQHMHNQNNNSHPQKIHNISWTHLFQSSGIKRTTAERNSDAGSFLRGFNVNRAQSSVAVVDLEEEAAVVSSPNSAVSSLSGNKRDLAVARGGDENEAERASCSRGGGSGGSDDEDGGNGDGSRKKLRLSKDQALVLEETFKEHSTLNPKQKLALAKQLNLRARQVEVWFQNRRARTKLKQTEVDCEYLKRCCDNLTEENRRLQKEVSELRALKLSPHLYMHMTPPTTLTMCPSCERVSSSAATVTAAPSTTTTPTVVGRPSPQRLTPWTAISLQQKSGR
Regarding B8, in assay [1], the binding result is “no binding”.

B9: TT8-nYFP (protein, UniProt Q9FT81 1-518)
chain: MDESSIIPAEKVAGAEKKELQGLLKTAVQSVDWTYSVFWQFCPQQRVLVWGNGYYNGAIKTRKTTQPAEVTAEEAALERSQQLRELYETLLAGESTSEARACTALSPEDLTETEWFYLMCVSFSFPPPSGMPGKAYARRKHVWLSGANEVDSKTFSRAILAKSAKIQTVVCIPMLDGVVELGTTKKVREDVEFVELTKSFFYDHCKTNPKPALSEHSTYEVHEEAEDEEEVEEEMTMSEEMRLGSPDDEDVSNQNLHSDLHIESTHTLDTHMDMMNLMEEGGNYSQTVTTLLMSHPTSLLSDSVSTSSYIQSSFATWRVENGKEHQQVKTAPSSQWVLKQMIFRVPFLHDNTKDKRLPREDLSHVVAERRRREKLNEKFITLRSMVPFVTKMDKVSILGDTIAYVNHLRKRVHELENTHHEQQHKRTRTCKRKTSEEVEVSIIENDVLLEMRCEYRDGLLLDILQVLHELGIETTAVHTSVNDHDFEAEIRAKVRGKKASIAEVKRAIHQVIIHDTNL
Consider B9, for which the binding result in assay [4] was “binds”.

The record behind these values is publication PMC6443190, “Regulation of anthocyanin accumulation via MYB75/HAT1/TPL-mediated transcriptional repression” (PLoS Genetics, 2019).
